This note sets out measurements from PMC12136788.

The list shows a part of the results.

T1: UNK ZnF1-3 (human, UniProt Q9C0B0 31-174)
T1 sequence: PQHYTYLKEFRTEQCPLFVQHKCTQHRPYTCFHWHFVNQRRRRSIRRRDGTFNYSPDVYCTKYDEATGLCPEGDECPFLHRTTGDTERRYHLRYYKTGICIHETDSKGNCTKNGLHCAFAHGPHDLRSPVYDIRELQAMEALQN

B1: chr11:87793471:87793472:-_ENSMUSG00000020483_ENSMUST00000020775|mus_mus|mus_mus_mus_hu_False|58_58 (ssRNA)
RNA: GGGAGUUCUACAGUCCGACGAUCUGGACUUGAAAAUAAAAGAAUAAGCUGGAUCCCCCACCCCCCCACAUUGUCAACCCUAUGCGAGAGUUUUGAAGGCGACUCAUGAAAAUCAGCAGCUCAAACGGCAAUGACCACCCCACCCAACAGAGGAUUGAGCAUCA
B2: chr16:2814425:2814426:+_ENSG00000167978_ENST00000301740|hu_mus|FALSE|FALSE (ssRNA)
RNA: GGGAGUUCUACAGUCCGACGAUCAGAUAGUUCUUUAUGCUCUGGAGAAACUUGUGGCCCACUCCAACAUGAAGCCACUGCAGGGGUUUCUGCUGCUUUUGAAGGCUGUGACUGGCUUUGGUCAAGAGCAGACAAUACAGCAGGCAACAGAGGAUUGAGCAUCA
B3: chr6:108204272:108204273:-_ENSG00000025796_ENST00000369002|hu_mus|motif|central (ssRNA)
RNA: GGGAGUUCUACAGUCCGACGAUCUUGCUCUCUAUCAGACUCCCUGUCACUACCAUCUUCUUUCUCACUCUGAGAAUCUCGGUUGGUUUCUUCCUCUUCAGAAUCACUGCCCUUGUCAGAAAUGUCGUCUUCUUCCUCCUUUAUCAACAGAGGAUUGAGCAUCA
B4: 109701261_109701381_6649_CDS_ENSG00000148143_ENST00000277225|human|control|control (ssRNA)
RNA: GGGAGUUCUACAGUCCGACGAUCGUCUUCCACUUCUUCAGCCGGGGUAGCUUUUUGGGAGGAGUGGUGGGAGUGUGAGGAGAGGAGACUGACGAUCCGUGGCCUGGGGAGGGUCAGGGCUUUUCCGUGGACCUUGAGGGAGUGCAACAGAGGAUUGAGCAUCA
B5: 69843214_69843334_2800_3pUTR_ENSMUSG00000053477_ENSMUST00000078486|mouse|control|control (ssRNA)
RNA: GGGAGUUCUACAGUCCGACGAUCCUAAGGAAUGGCUAAUGUCAUCACUUCGUUGCCAUCAGGACGUUUGCUGGUUUUGUUACGAGGGCAGCCGGGCUUCCCCUAUUCAAUAUCCGGUAAUUAGAAACACUAGCUGACGUGAAUCAACAGAGGAUUGAGCAUCA
B6: 118948765_118948885_485_3pUTR_ENSG00000121578_ENST00000480814|human|control|control (ssRNA)
RNA: GGGAGUUCUACAGUCCGACGAUCUUCCCUUCCCCAAAAUGAGGGUCUUAUGGAAAUUAGCCAUGAACUCCUUUGCUUUAGGAAUCUCUUGAAUGGCACCCACGAAGUAGUUACUGGUGGCCCACCCAACCACUGUCAGGCACACAACAGAGGAUUGAGCAUCA
B7: chr10:71917581:71917582:-_ENSG00000079332_ENST00000373241|hu_mus|FALSE|FALSE (ssRNA)
RNA: GGGAGUUCUACAGUCCGACGAUCCUCAACUUUGGAUUCCAUGAGACGAGAAUGAUCCGCACAGUCCACCAGAAAAACUAUGCCAUUAAUCGCUGGGAGAUAAUUUUUCCAAACGCGACGUGCUUGCUCAUGCCCACCGAGAUCCAACAGAGGAUUGAGCAUCA
B8: chr12:39756943:39756944:-_ENSG00000139116_ENST00000544797|hu_mus|hu_hu_hu_mus_False|88_98 (ssRNA)
RNA: GGGAGUUCUACAGUCCGACGAUCGGUUUGGCUGUUACCCCCGAGGGAAUCCUGUAGGAGUCUUGUCAGCUUAGAGUCUCUGUAAGGGACAUGGGUGGCUCUCUUGCUCUUGUCCCCCAAGGCGCUGAUUACAUUCCCAAGAGCCAACAGAGGAUUGAGCAUCA
B9: chr7:54823571:54823572:-_ENSG00000132432_ENST00000352861|hu_mus|hu_hu_hu_mus_False|8_48 (ssRNA)
RNA: GGGAGUUCUACAGUCCGACGAUCUCCCAUGAUAGCAAAUCCUAUAGCUGUAGCCAUGGCAAUCUUCUGGAAUUCUUUUCUGUCGGGUUUAGUGCAUCUUUUAACCAGCCGAAUUGAGUCCUUUACAAACUGCCGACUGGGCUCCAACAGAGGAUUGAGCAUCA
B10: chr2:48034705:48034706:-_ENSG00000138081_ENST00000403359|hu_hu|motif|central (ssRNA)
RNA: GGGAGUUCUACAGUCCGACGAUCCAUAGAAAGAACGUACAUACUGGGACAUGAGUACAGUUACAGCAAGUCUAGGUGUGCGGACAAAACAGGGCACAUUCAAGUACAGUAAGAUUUUGCUUGAAAUUAAAAACAAACUACAUGCAACAGAGGAUUGAGCAUCA
B11: chr12:39763582:39763583:-_ENSG00000139116_ENST00000544797|hu_mus|hu_hu_hu_mus_False|68_78 (ssRNA)
RNA: GGGAGUUCUACAGUCCGACGAUCCUCUAGGAACUGGGCAUUCACUUUGAAUUCAGGAGCAGGAAGCCCAUUUUUAAUCGCUGAGGUCUUUUUCUCAUCAAUACUCUUGAACAGGUGUCUAACAGCACGAGAGAUGAUGCCCUGCAACAGAGGAUUGAGCAUCA
B12: chr14:53325200:53325201:-_ENSG00000073712_ENST00000341590|hu_mus|FALSE|FALSE (ssRNA)
RNA: GGGAGUUCUACAGUCCGACGAUCAUUUUGGUCUUUCGCACGAGUUGAGAGAAAUAUGUAACCACCAAUGAAUUCGUGGACCACCUUGCAGUCUACUUCGGUACAGAUGAAGGACAACCGGACCUCAUCUGCAAACUCUACAGUCAACAGAGGAUUGAGCAUCA
B13: chr5:145543945:145543946:-_ENSG00000133706_ENST00000545646|hu_hu|hu_hu_hu_mus_True|1_18 (ssRNA)
RNA: GGGAGUUCUACAGUCCGACGAUCCUGAACGGCCAGUGGUGGGAAAUAAUCAAGCCAGUGCUCUGCUUCAGAAAACUUCACUAUGUCGUCAUCAGAGAGCCCAAGGGAUUUCAUAAUGCCCCACUGGUACUUAGAAGAUCCAGCCAACAGAGGAUUGAGCAUCA
B14: chr6:148129406:148129407:-_ENSMUSG00000030304_ENSMUST00000136008|mus_hu|FALSE|FALSE (ssRNA)
RNA: GGGAGUUCUACAGUCCGACGAUCAAUCUGAUAUAUCUUGUGGUGCUUACAAUUUGCCUUACACUUUCAUUUAAAGUUACCCUGUUCUCCACUCACCACAUGUAUAAAAUAUCCUAUUUUUUCUCUUAAUGUUUUACAAACCGGCAACAGAGGAUUGAGCAUCA
B15: chr5:131913501:131913502:-_ENSMUSG00000029673_ENSMUST00000160071|mus_hu|FALSE|FALSE (ssRNA)
RNA: GGGAGUUCUACAGUCCGACGAUCACCACUACAGUUCCAGUGUACAUAUUCCUUGCAUUUUUUUUAGUUGUUGUCUUAAAAAAAAAAAAAAACACCGCACAACAUCUGGAGUUCACAAAAUCUGAAGCUCACAACUAAACCUUCCAACAGAGGAUUGAGCAUCA
B16: chr1:23395093:23395094:+_ENSG00000004487_ENST00000356634|perfect_dup|FALSE|FALSE (ssRNA)
RNA: GGGAGUUCUACAGUCCGACGAUCUGCCUGGCCAAGGGACACAGGCUUAUUAUUGAGGACAUUGAAGUCUAGUUGAUGACUAAGGUAAGAUGUAGCUUCUAGCAACCGGUUAAACUCUUGCUCUACCAUUUCAUCUUUCUCUUUCAACAGAGGAUUGAGCAUCA
B17: chr11:47008823:47008824:+_ENSG00000149179_ENST00000278460|hu_hu|FALSE|FALSE (ssRNA)
RNA: GGGAGUUCUACAGUCCGACGAUCUCCCUGGCAUACACUGUUAAAAUAUUCAGUGAAGAACCUGGCAAUUCCAUAUUGGCUAAUAUCUUCCCUGUUUUCUAGCAGCUGGCACACUGCAUCCUCCAUGUAGGUGAGGACAUGUCGCAACAGAGGAUUGAGCAUCA
B18: 24703985_24704105_2818_3pUTR_ENSG00000112304_ENST00000230048|human|control|control (ssRNA)
RNA: GGGAGUUCUACAGUCCGACGAUCUGUUUAUUCAUGCUUAACGCCCUUCUCAAGUAUACUCUCCAUCUGCUCUUCAUUGAUGUUACUUUUGAGCGCCUGGUCAAGGUGUCCUGGUUUUGCCCUAUGUGUGGUACUUACUACUAGCAACAGAGGAUUGAGCAUCA
B19: chr3:176767854:176767855:-_ENSG00000177565_ENST00000430069|hu_hu|hu_hu_hu_mus_False|48_88 (ssRNA)
RNA: GGGAGUUCUACAGUCCGACGAUCGACAUCCUUGUUACUGGGCACGUCUUGCCCUCCUUCCCGUAUGCAGUGUCUAAGCACGAGCUGUGUAGAGCCACUCGUGCUGUUCUCACUGAGGUUCCAGAUUCUUGCCGUGGAGUCUCCCAACAGAGGAUUGAGCAUCA
B20: chr12:45383586:45383587:+_ENSMUSG00000036257_ENSMUST00000043082|perfect_dup|FALSE|FALSE (ssRNA)
RNA: GGGAGUUCUACAGUCCGACGAUCGUAAAUAUAUAUAUCUACAGUCAGAUUAAUAGACAUAACUUAAAAAUCAUUUAUUUUCUAUGACAUUCUCUCACUUCUUGAACGCUUCAUUUAAGAAAUGCCAUAAUUCAUGGUCUUACUCAACAGAGGAUUGAGCAUCA
B21: chr17:60770872:60770873:+_ENSG00000011028_ENST00000303375|hu_hu|hu_hu_hu_mus_True|38_108 (ssRNA)
RNA: GGGAGUUCUACAGUCCGACGAUCUCUCUUUUCUUUUAAAAAAAAAGACAAACAAUAAUAGCACAUUUCGAGAAUCAAGAACUACAAUAGAGGGUCCAUGUCUUCGAUUUGUUCACAUCGUCCUGCACUGGGACACGGGGACUGCAACAGAGGAUUGAGCAUCA
B22: 102452692_102452812_2354_CDS_ENSG00000197102_ENST00000360184|human|control|control (ssRNA)
RNA: GGGAGUUCUACAGUCCGACGAUCGACUUCUUUGGAUAGUGUGAUAAUCUCAGGAAGAAAGUUAACUUUCAGCUUAAGCACAUUUCCAGUUCGGCCCCGAACCCGAGUACUUUCGAUGGUGAAAAUGCGCCCCGAGACACCGAGCAACAGAGGAUUGAGCAUCA

This experiment deals with T1, UNK ZnF1-3. As to the kind of experiment: nsRBNS (natural sequence RNA bind-n-seq); RBNS binding buffer (assumed for nsRBNS): 25 mM Tris pH 7.5, 150 mM KCl, 3 mM MgCl2, 0.01% Triton X-100, 500 ug/ml BSA, 20 U/ml SUPERase-In, 4 C; UNK is unkempt and MSI1 is Musashi-1; names of the RNAs are library labels; protein concentration not given here; high values mean tight binding.
For B1, the binding signal is 2.05 enrichment R.
For B2 the value was 1.01 enrichment R.
In turn, B3 had a binding signal of 0.409 enrichment R.
In the case of B4 it was 1.46 enrichment R; in that of B5, 0.762 enrichment R.
Take B6: the binding signal is 1.13 enrichment R.
B7 showed a binding signal of 1.21 enrichment R.
On to B8, for which the binding signal was found to be 0.796 enrichment R.
In the case of B9 it was 0.705 enrichment R.
In the case of B10, the binding signal amounted to 1.18 enrichment R.
In the case of B11, the binding signal was 1.28 enrichment R.
B12 registered a binding signal of 0.733 enrichment R.
As for B13, the binding signal is 1.25 enrichment R.
B14 came in with a binding signal of 0.762 enrichment R.
Consider B15, for which the binding signal was 1.29 enrichment R.
For B16 the value was 0.691 enrichment R; for B17, 0.786 enrichment R; for B18, 0.373 enrichment R.
The molecule B19 had a binding signal of 0.4 enrichment R.
For B20, the binding signal was 0.46 enrichment R.
As for B21, the binding signal amounted to 0.723 enrichment R.
Molecule B22 had a binding signal of 0.688 enrichment R.
